Laboratory results from PubChem BioAssay (NCI).
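Cultured in 96-well plates, cells were exposed to test compound for 48 hours across five concentrations. Abbreviation: GI50, concentration required for 50% inhibition of growth.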 Some entries of the source have several records that differ or are many. The other results are left out here. The source may hold further records. For part of these data: The values listed for one entry repeat one measurement (runs, samples, wells, individuals or studies). What stands in brackets tells the records apart. Letters hold for one entry only.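 TGI is the concentration that stops growth completely.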 For part of these data: A record mostly stands for its own series of concentrations, not given here; some values may only mark the edge of a range.

Columns and labels:
Test in all cases: DTP human tumour cell line panel, 48 h
MOLT-4 leukemia = system: MOLT-4 leukemia
OVCAR-3 ovarian = system: OVCAR-3 ovarian
BT-549 breast = system: BT-549 breast
CAKI-1 renal = system: CAKI-1 renal
A549 NSCLC = system: A549 NSCLC
TK-10 renal = system: TK-10 renal
SK-MEL-28 melanoma = system: SK-MEL-28 melanoma
OVCAR-8 ovarian = system: OVCAR-8 ovarian
786-0 renal = system: 786-0 renal
HT29 colon = system: HT29 colon
M14 melanoma = system: M14 melanoma
NCI-H226 lung = system: NCI-H226 lung
NCI-H522 lung = system: NCI-H522 lung
OVCAR-4 ovarian = system: OVCAR-4 ovarian
EKVX NSCLC = system: EKVX NSCLC
MDA-N = system: MDA-N
MCF7 breast = system: MCF7 breast
K-562 leukemia = system: K-562 leukemia
CCRF-CEM leukemia = system: CCRF-CEM leukemia
HL-60(TB) leukemia = system: HL-60(TB) leukemia
LOX IMVI melanoma = system: LOX IMVI melanoma
ACHN renal = system: ACHN renal
NCI/ADR-RES ovarian = system: NCI/ADR-RES ovarian
SN12C renal = system: SN12C renal
MDA-MB-231 breast = system: MDA-MB-231 breast

## Cn1c(=O)n(-c2ccc(C(C)(C)C#N)cc2)c2c3cc(-c4cnc5ccccc5c4)ccc3ncc21
MOLT-4 leukemia
  TGI: > 100 µM [sample A, 1 test] and 2.84 µM [sample B, mean of 2 tests]
OVCAR-3 ovarian
  TGI: 3.89 µM [sample A, mean of 2 tests] and > 7.38 µM [sample B, mean of 2 tests] and > 73.9 µM [sample C, mean of 2 tests]
BT-549 breast
  TGI: 128 nM [sample A, mean of 2 tests] and > 100 µM [sample B, 1 test]
CAKI-1 renal
  GI50: 15.2 nM [sample A, mean of 2 tests] and < 1 nM [sample B, 1 test] and < 12.8 nM [sample C, mean of 2 tests]
A549 NSCLC
  TGI: 81.7 nM [sample A, mean of 2 tests] and > 10 µM [sample B, mean of 2 tests]
TK-10 renal
  TGI: 47.7 nM [sample A, mean of 2 tests] and 708 nM [sample B, mean of 2 tests] and 67.8 nM [sample C, mean of 2 tests]
SK-MEL-28 melanoma
  TGI: 13.4 µM [sample A, mean of 2 tests] and 327 nM [sample B, 1 test] and > 100 µM [sample C, mean of 2 tests]
OVCAR-8 ovarian
  TGI: 74 nM [sample A, mean of 2 tests] and > 10 µM [sample B, mean of 2 tests] and > 100 µM [sample C, mean of 2 tests]
786-0 renal
  TGI: 6.28 µM [sample A, mean of 2 tests] and > 10 µM [sample B, mean of 2 tests] and > 100 µM [sample C, 1 test]
HT29 colon
  TGI: 2.52 µM [sample A, mean of 2 tests] and > 10 µM [sample B, mean of 2 tests] and > 100 µM [sample C, mean of 2 tests]
M14 melanoma
  TGI: 2.41 µM [sample A, mean of 2 tests] and > 5.44 µM [sample B, mean of 2 tests] and 168 nM [sample C, 1 test]
NCI-H226 lung
  TGI: 18.2 µM [sample A, 1 test] and 293 nM [sample B, 1 test] and > 100 µM [sample C, 1 test]
NCI-H522 lung
  TGI: 78 nM [sample A, mean of 2 tests] and > 9.48 µM [sample B, mean of 2 tests] and > 22.8 µM [sample C, mean of 2 tests]
OVCAR-4 ovarian
  TGI: 2.36 µM [sample A, 1 test] and 51.7 nM [sample B, mean of 2 tests] and > 100 µM [sample C, 1 test]
EKVX NSCLC
  TGI: > 100 µM [sample A, 1 test] and 137 nM [sample B, mean of 2 tests]

## COc1ccc(/C=C\c2cc(OC)c(OC)c(OC)c2)cc1OP(=O)(O)O
MDA-N
  TGI: > 100 µM [sample A, 1 test] and 0.136 nM [sample B, mean of 2 tests]
MCF7 breast
  TGI: > 100 µM [sample A, mean of 3 tests] and > 100 µM [sample B, 1 test] and 854 nM [sample B, mean of 2 tests]

## CCCCCCCCCCCCCCCCP(=O)(O)OP(=O)(O)OCC1OC(n2ccc(N)nc2=O)C(O)C1O (stereo unspecified)
MOLT-4 leukemia
  GI50: > 100 µM [sample A, 1 test] and 426 nM [sample B, mean of 2 tests]
K-562 leukemia
  GI50: > 100 µM [sample A, 1 test] and 8.9 µM [sample B, mean of 2 tests]
CCRF-CEM leukemia
  GI50: > 100 µM [sample A, 1 test] and 229 nM [sample B, mean of 2 tests]
HL-60(TB) leukemia
  GI50: > 100 µM [sample A, 1 test] and 4.76 µM [sample B, mean of 2 tests]
A549 NSCLC
  GI50: > 100 µM [sample A, 1 test] and 2.52 µM [sample B, mean of 2 tests]
OVCAR-8 ovarian
  GI50: > 100 µM [sample A, 1 test] and 1.17 µM [sample B, mean of 2 tests]
786-0 renal
  GI50: > 100 µM [sample A, 1 test] and 8.01 µM [sample B, mean of 2 tests]
M14 melanoma
  GI50: > 100 µM [sample A, 1 test] and 6.44 µM [sample B, mean of 2 tests]
LOX IMVI melanoma
  GI50: > 100 µM [sample A, 1 test] and 9.46 µM [sample B, mean of 2 tests]
ACHN renal
  GI50: > 100 µM [sample A, 1 test] and 4.75 µM [sample B, mean of 2 tests]
NCI/ADR-RES ovarian
  GI50: > 100 µM [sample A, 1 test] and 7.62 µM [sample B, mean of 2 tests]

## Oc1ccc2ccccc2c1-c1nnc(CCCCCCCCc2nnc(-c3c(O)ccc4ccccc34)o2)o1
MOLT-4 leukemia
  TGI: 479 nM and > 37.3 µM
OVCAR-3 ovarian
  TGI: 25 µM and 2.2 µM
OVCAR-8 ovarian
  TGI: 2.66 µM and > 100 µM
MDA-N
  TGI: 7.61 µM and > 100 µM
HT29 colon
  TGI: 1.2 µM and > 68.8 µM
SN12C renal
  TGI: 3.37 µM and > 49.3 µM
NCI/ADR-RES ovarian
  TGI: 1.11 µM and > 100 µM
MDA-MB-231 breast
  TGI: 2.02 µM and > 66.6 µM
